Each structure is given as a SMILES string. Among all 50,000 compounds or so, about 800 (1.6%) showed an effect of 50% or more. This is one part of the list.

From PubChem BioAssay AID1240 (Sanford-Burnham Center for Chemical Genomics, 2008) come the findings set out here.

In this test the target is Bcl-2-like protein 10 (Homo sapiens) (UniProt Q9HD36). The test can be described thus: Phenotype converters, Bcl-B/TR3 peptide binding displacement, primary biochemical FP (AID 1240).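 Further: 0% = Bcl-B with tracer peptide and DMSO and 100% = tracer peptide lacking Bcl-B.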 The conditions noted are these: GST-Bcl-B / FITC-TR3 peptide fluorescence polarization; stronger effect = higher value; compound at 3.75 mg/L. On the technique in general: Polarisation of emitted light reports the rotation of a fluorescent probe.
UniProt Q9HD36, sequence (Q9HD36 whole entry, looked up): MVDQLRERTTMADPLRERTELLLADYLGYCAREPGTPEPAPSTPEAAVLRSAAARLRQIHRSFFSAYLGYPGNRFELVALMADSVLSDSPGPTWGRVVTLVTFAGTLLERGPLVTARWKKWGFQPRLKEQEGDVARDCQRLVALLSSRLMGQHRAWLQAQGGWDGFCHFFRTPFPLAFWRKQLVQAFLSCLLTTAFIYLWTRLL
For the molecule `O=C(COc1ccccc1Cl)Nc1nccs1`, the displacement was found to be 0%.

As to `CN1CCN(Cc2c(O)ccc3cc(-c4ccccn4)c(=O)oc23)CC1`, the displacement is 25.9%.

In the case of `CCOC(=O)C1=C(C)N=c2s/c(=C\c3cc(Br)ccc3O)c(=O)n2C1c1ccc(OC)cc1` (stereo not drawn), the displacement was 3.5%.

Take `COc1ccc(CNCC(CO)C2(c3ccccc3)CCOC(C)(C)C2)cc1` (stereo not drawn): the displacement was found to be 8%.

Turning to `CSc1nsc(SC)c1NC(=O)OCCc1ccccn1`, the displacement is 0.4%.

Consider `CCOc1ccc(/C=C2/NC(=S)NC2=O)cc1`, for which the displacement turned out to be 10.8%.

As for `COC(=O)c1cccc(NC(=O)COc2ccc(Br)cc2)c1`, the displacement is 13.5%.

Take `CCOc1ccc(C(=O)Nc2ccc(NC(=O)c3cccc(C)c3)cc2)cc1`: the displacement was -6.9%.

For `CC1(C)Nc2ccccc2N(Cc2ccccc2)C1=O`, the displacement stood at 10%.

For `Cc1ccc(/C=N\N2CCN(c3ccccc3)CC2)cc1`, the displacement is -3.9%.

For `COc1ccccc1N(CC(=O)Nc1cccc(Br)c1)S(=O)(=O)c1ccccc1`, the displacement turned out to be 1.1%.

`COc1ccc(OCCCCCNCCO)cc1`: the displacement is 5.2%.

With `COc1ccc(N(CC(=O)NCc2ccc(C)cc2)S(=O)(=O)c2ccc(OC)c(OC)c2)cc1`, the displacement is -4.7%.

For the molecule `Cc1ccccc1OCC(=O)Nc1ccc(NC(=O)c2ccco2)cc1`, the displacement amounted to 14.7%.

In the case of `COc1ccc(C(=O)Nc2ccncc2)cc1Br`, the displacement was found to be 13.6%.

With `CCNC(=S)N(Cc1ccccc1)/N=C\c1ccccc1`, the displacement is -2.8%.

Regarding `COc1ccc(CNC(=O)C2c3ccccc3Oc3ccccc32)cc1`, the displacement was found to be 11.4%.

`Cc1ccccc1Nc1nc(-c2cc3cc(Br)ccc3oc2=O)cs1`: the displacement turned out to be 3.3%.

Consider `CCCCCCOc1ccc(/C=C2/C(=O)ON=C2c2ccccc2)cc1`, for which the displacement was 2.7%.

With `Cc1ccc(OCC(=O)Nc2c(C)cccc2C(C)C)c(C(C)(C)C)c1`, the displacement came out at 15.4%.

`O=C(Nc1ccccc1C(=O)N1CCN(Cc2ccccc2)CC1)c1ccco1`: the displacement was found to be 3%.

As to `O=C(/C=C/c1ccc(Cl)cc1Cl)NCc1ccncc1`, the displacement was -4.4%.

As to `COc1ccc(N(CC(=O)Nc2ccc(Br)cc2)S(=O)(=O)c2ccccc2)cc1Cl`, the displacement is 11.2%.

On to `CCn1cc(/C=C2\C(=O)NC(=O)N(c3ccccc3)C2=O)c2ccccc21`, for which the displacement came to 25.2%.

As for `Cc1ccc(S(N)(=O)=O)cc1NC(=O)c1ccc(F)cc1`, the displacement is 10%.

For the molecule `Cc1ccccc1NC(=O)c1ccc(-c2ccccc2)cc1`, the displacement came out at 14.5%.

On to `CC(C)(C)c1ccc(C(=O)NNC(=O)c2ccc([N+](=O)[O-])cc2[N+](=O)[O-])cc1`, for which the displacement is -8.3%.

As to `COc1ccc(C)cc1NC(=O)CCC1CCCC1`, the displacement was -4.4%.

As for `CCOC(=O)CNc1cccc(NCC(=O)OCC)c1`, the displacement was 44.2%.

On to `O=C(Nc1ccc(Cl)cc1Cl)C1C2C3CCC(C3)C12` (stereo not drawn), for which the displacement is -6%.

`Cc1c(Cl)cccc1-c1ccc(/C=C/c2cc(C(F)(F)F)[nH]c(=O)n2)o1`: the displacement was -60.9%.

`CC(C)CNC(=O)CC(=O)N/N=C/c1ccc(C(=O)O)cc1`: the displacement is -6%.

As for `COc1ccc(N2C(=O)C(Cl)=C(N3CCN(C)CC3)C2=O)cc1`, the displacement was 12.3%.

With `Oc1ccc(Br)cc1CN1CCN(C2CCN(Cc3ccccc3)CC2)CC1`, the displacement turned out to be 9%.

As for `CN(C)c1ccc(/C=C/C(=O)c2ccc(Cl)cc2)cc1`, the displacement was -19.3%.

For the molecule `CCCOc1ccc(N2C(=O)CC(NCCc3ccc(Cl)cc3)C2=O)cc1` (stereo not drawn), the displacement is -11%.

`Cc1ccc(C(=O)CCNc2ccc(Br)cc2)o1`: the displacement was -13%.

For the molecule `CCCOc1ccccc1C1C(C(=O)OCCc2ccccc2)=C(C)NC2=C1C(=O)CCC2` (stereo not drawn), the displacement was -3.2%.

As to `O=C(COc1ccc2ccccc2c1)Nc1ccc(Cl)cn1`, the displacement amounted to 10.1%.

Consider `COc1ccc(C2NC(=O)NC3=C2CCc2ccccc23)cc1` (stereo not drawn), for which the displacement came out at 16.8%.

Consider `COc1ccccc1NC(=O)COc1ccc(Br)cc1`, for which the displacement was determined as 1.7%.

With `COc1ccc(C(=O)Oc2ccc3c(C)cc(=O)oc3c2C(C)=O)cc1`, the displacement worked out at 7.8%.

Take `O=C(O)c1ccc(/C=C/C(=O)c2ccc3c(c2)OCCO3)cc1`: the displacement is -1.5%.

On to `Cc1cc(C)c2nc(NC(=O)c3ccccc3[N+](=O)[O-])sc2c1`, for which the displacement is 0.1%.

Consider `COc1ccc(/C=C2/SC(=O)NC2=O)c(OC)c1`, for which the displacement was determined as 4.9%.

Turning to `Brc1ccc(OCCOc2cccc(/C=N/n3cnnc3)c2)cc1`, the displacement was 7%.

As to `O=C1S/C(=C/C=C/c2ccccc2)C(=O)N1CNc1ccc(F)cc1`, the displacement stood at 0.4%.

Regarding `Cc1cc(C)n(-c2cc(N(CCO)CCO)ncn2)n1`, the displacement was found to be 3.3%.

In the case of `CC(=O)Nc1ccc(NC(=S)NC(=O)/C=C/c2ccccc2)cc1`, the displacement was 4.8%.

Turning to `COc1ccc(CC(=O)N=Nc2c(O)n(CN3CCN(C)CC3)c3ccc(Br)cc23)cc1`, the displacement was -8.9%.

For the molecule `Cc1oc(-c2ccccc2)cc1C(N)=O`, the displacement was -9.2%.

Consider `O=C1CC(c2ccccc2)CC(O)=C1C=NCCc1ccccc1` (stereo not drawn), for which the displacement is -17.4%.

On to `COc1cc(/C=C2\C(=O)NC(=O)N(c3ccc(F)cc3)C2=O)cc(I)c1O`, for which the displacement was -11.2%.

Regarding `O=C(Nc1ccc(-c2nc3ccccc3s2)c(O)c1)c1cc2ccccc2o1`, the displacement turned out to be 24%.

Turning to `C1=NC(c2ccccc2)C(c2ccccc2)=NN1` (stereo not drawn), the displacement came out at 2.6%.

Regarding `CCCOc1ccc(C2Nc3ccccc3NC3=C2C(=O)CC(c2ccc(OC)cc2)C3)cc1OC` (stereo not drawn), the displacement is -9.5%.

In the case of `Cc1nc(-c2ccccc2)sc1C(=O)Nc1cccc2ccccc12`, the displacement amounted to 13.1%.

Consider `CCOc1ccc(OCC)c(-c2c(C#N)c(N)nc3c2CCCCCC3)c1`, for which the displacement is -9.1%.

Regarding `CCOP(=O)(CC(=O)O)c1ccccc1` (stereo not drawn), the displacement is 18.9%.

On to `CN(C)Cc1c(O)ccc2occ(C(=O)c3cccs3)c12`, for which the displacement turned out to be 5.8%.

`CN1C(=O)/C(=C/c2ccccc2F)SC1=S`: the displacement came out at 11.4%.

For the molecule `Cc1cc(C)nc(NC(=O)COc2ccc(Cl)cc2Cl)c1`, the displacement was 22.6%.

As to `COc1ccc(C(=O)N2CCN(c3cccc(C)c3C)CC2)cc1OC`, the displacement was found to be 2.4%.

Take `O=[N+]([O-])c1cccc(S(=O)(=O)Nc2ccc(Br)cc2)c1`: the displacement was 10%.

Consider `Cc1ccccc1-c1cc(C(=O)Nc2ccccc2C(F)(F)F)c2ccccc2n1`, for which the displacement was -7.6%.

On to `O=C(Nc1cccc(NC(=O)c2cc3ccccc3oc2=O)c1)c1ccccc1Cl`, for which the displacement is 1.9%.

On to `C/C(=N\NC(=O)Cc1ccc([N+](=O)[O-])cc1)c1ccc(Br)s1`, for which the displacement is -5.8%.

For `CC(=O)Nc1ccc(S(=O)(=O)Nc2ccc(Br)c(Cl)c2)cc1`, the displacement is -8.7%.

On to `CCCCOC(=O)c1ccc(NC(=O)CSc2nnc(N)s2)cc1`, for which the displacement was -17.7%.

Take `C=CCOc1ccccc1/C=C1/C(=O)ON=C1c1ccc(Cl)cc1`: the displacement is 8.4%.

In the case of `O=C(O)c1ccc(N2C(=O)CC(SC(=Nc3ccccc3)Nc3ccccc3)C2=O)cc1` (stereo not drawn), the displacement stood at 5.7%.

As for `COC(=O)CN(c1ccccc1C)S(C)(=O)=O`, the displacement was 8.7%.

Turning to `O=C(CSc1ccccn1)N/N=C/c1ccc(Br)cc1`, the displacement worked out at 1.5%.
